The list shows a part of the results. The full chains were built here from the parent and the listed change. Inactive controls read about 0.05.

B1: TEV protease; numbered along this chain (parent)
chain: MGESLFKGPRDYNPISSSICHLTNESDGHTTSLYGIGFGPFIITNKHLFRRNNGTLVVQSLHGVFKVKDTTTLQQHLVDGRDMIIIRMPKDFPPFPQKLKFREPQREERICLVTTNFQTKSMSSMVSDTSCTFPSGDGIFWKHWIQTKDGQCGSPLVSTRDGFIVGIHSASNFTNTNNYFTSVPKNFMELLTNQEAQQWVSGWRLNADSVLWGGHKVFMVKPEEPFQPVKEATQL

In the assay the parent is B1. Nature of the assay: raw area under fraction-flipped curve 0-4 h after induction (AUC4h, not background-subtracted), DNA-recorder readout of cleavage of the substrate (dimensionless); higher = more cleavage of the substrate by the protease variant. Conditions: temperature: 34 °C; time window: 0-4 h after rhamnose induction. How it is done:
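In vivo DNA recorder in E. coli TOP10(DE3) ΔrhaA at 34 °C. Each TEVp single-site mutant (parent TEVp 0) is paired with a single-site variant of the 7-mer TEVs (canonical ENLYFQ|S). The substrate sits between flexible linkers in a Bxb1-sfGFP-TEVs-SsrA fusion, so cleavage stabilises Bxb1 and speeds flipping of a recombination array, read by NGS. The value is the raw area under the fraction-flipped curve over 0-4 h after rhamnose induction (AUC4h), with ≥20 reads per time point. It is not background-subtracted; inactive controls average about 0.047.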
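Further: Bxb1 expression induced with 0.2% (w/v) L-rhamnose at OD600 near 0.5, cultures sampled hourly, flipped fraction per protease–substrate barcode pair counted by paired-end Illumina sequencing.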

As to MGESLFKGPRDYNPISSSICHLTNESDGHTTSLYGIGFGPFIITNKHLFRRNNGTLVVQSLHGVFKVKTTTTLQQHLVDGRDMIIIRMPKDFPPFPQKLKFREPQREERICLVTTNFQTKSMSSMVSDTSCTFPSGDGIFWKHWIQTKDGQCGSPLVSTRDGFIVGIHSASNFTNTNNYFTSVPKNFMELLTNQEAQQWVSGWRLNADSVLWGGHKVFMVKPEEPFQPVKEATQL [D69T], the “area with substrate ENAYFQS” value turned out to be 0.0811, the “area with substrate ENCYFQS” value is 0.0678, the “area with substrate ENDYFQS” value came to 0.061 and the “area with substrate ENEYFQS” value is 0.06. Moreover, the “area with substrate ENFYFQS” value was 0.0541, the “area with substrate ENGYFQS” value amounted to 0.0626, the “area with substrate ENHYFQS” value came out at 0.0559 and the “area with substrate ENKYFQS” value came out at 0.0656. The “area with substrate ENNYFQS” value is 0.058, the “area with substrate ENPYFQS” value was 0.0573, the “area with substrate ENQYFQS” value worked out at 0.0359 and the “area with substrate ENSYFQS” value worked out at 0.0689. Besides, the “area with substrate ENTYFQS” value came out at 0.07, the “area with substrate ENVYFQS” value was 0.0576 and the “area with substrate ENYYFQS” value turned out to be 0.0517.
MGESLFKGPRDYNPISSSICHLTNESDGHTTSLYGIGFGPFIITNKHLFRRNNGTLVVQSLHGVMKVKDTTTLQQHLVDGRDMIIIRMPKDFPPFPQKLKFREPQREERICLVTTNFQTKSMSSMVSDTSCTFPSGDGIFWKHWIQTKDGQCGSPLVSTRDGFIVGIHSASNFTNTNNYFTSVPKNFMELLTNQEAQQWVSGWRLNADSVLWGGHKVFMVKPEEPFQPVKEATQL [F65M]: the “area with substrate ENAYFQS” value came out at 0.0707, the “area with substrate ENCYFQS” value was determined as 0.0633, the “area with substrate ENDYFQS” value turned out to be 0.062 and the “area with substrate ENEYFQS” value turned out to be 0.0701. Further, the “area with substrate ENFYFQS” value was found to be 0.0416, the “area with substrate ENGYFQS” value worked out at 0.0606, the “area with substrate ENHYFQS” value is 0.0801 and the “area with substrate ENIYFQS” value was 0.1. The “area with substrate ENKYFQS” value amounted to 0.0859, the “area with substrate ENMYFQS” value came out at 0.0918, the “area with substrate ENPYFQS” value was 0.0559 and the “area with substrate ENQYFQS” value was 0.0603. The “area with substrate ENRYFQS” value was determined as 0.0433, the “area with substrate ENSYFQS” value came to 0.0659, the “area with substrate ENTYFQS” value is 0.0578 and the “area with substrate ENVYFQS” value came out at 0.0561. In addition, the “area with substrate ENWYFQS” value came out at 0.0706.
On to MGESLFKGPRDYNPISSSICHLTNESDGHTTSLYGIGFGPFIITNKHLFRRNNGTLVVQSLRGVFKVKDTTTLQQHLVDGRDMIIIRMPKDFPPFPQKLKFREPQREERICLVTTNFQTKSMSSMVSDTSCTFPSGDGIFWKHWIQTKDGQCGSPLVSTRDGFIVGIHSASNFTNTNNYFTSVPKNFMELLTNQEAQQWVSGWRLNADSVLWGGHKVFMVKPEEPFQPVKEATQL [H62R], for which the “area with substrate ENAYFQS” value turned out to be 0.0644, the “area with substrate ENCYFQS” value stood at 0.0657, the “area with substrate ENEYFQS” value came out at 0.0658 and the “area with substrate ENFYFQS” value worked out at 0.074. The “area with substrate ENIYFQS” value was found to be 0.11, the “area with substrate ENKYFQS” value turned out to be 0.0706, the “area with substrate ENQYFQS” value stood at 0.0553 and the “area with substrate ENRYFQS” value stood at 0.0412. Besides, the “area with substrate ENSYFQS” value was 0.0914 and the “area with substrate ENTYFQS” value was found to be 0.0652.
Take MGESLFKGPRDYNPISSSICHLTNESDGHTTSLYGIGFGPFIITNKHLFRRNNGTLVVQSLWGVFKVKDTTTLQQHLVDGRDMIIIRMPKDFPPFPQKLKFREPQREERICLVTTNFQTKSMSSMVSDTSCTFPSGDGIFWKHWIQTKDGQCGSPLVSTRDGFIVGIHSASNFTNTNNYFTSVPKNFMELLTNQEAQQWVSGWRLNADSVLWGGHKVFMVKPEEPFQPVKEATQL [H62W]: the “area with substrate ENAYFQS” value was found to be 0.0567, the “area with substrate ENDYFQS” value came out at 0.064, the “area with substrate ENEYFQS” value amounted to 0.0759 and the “area with substrate ENGYFQS” value is 0.0554. In addition, the “area with substrate ENHYFQS” value came to 0.0695, the “area with substrate ENKYFQS” value stood at 0.0759, the “area with substrate ENMYFQS” value was 0.0687 and the “area with substrate ENNYFQS” value amounted to 0.0649. Further, the “area with substrate ENPYFQS” value is 0.0653, the “area with substrate ENQYFQS” value was 0.0501, the “area with substrate ENRYFQS” value was 0.0679 and the “area with substrate ENTYFQS” value is 0.0732. Further, the “area with substrate ENVYFQS” value was determined as 0.0704, the “area with substrate ENWYFQS” value came out at 0.0428 and the “area with substrate ENYYFQS” value was found to be 0.0572.
For the variant MGESLFKGPRDYNPISSSICHLTNESDGHTTSLYGIGFGPFIITNKHLFRRNNGTLVVQSLHHVFKVKDTTTLQQHLVDGRDMIIIRMPKDFPPFPQKLKFREPQREERICLVTTNFQTKSMSSMVSDTSCTFPSGDGIFWKHWIQTKDGQCGSPLVSTRDGFIVGIHSASNFTNTNNYFTSVPKNFMELLTNQEAQQWVSGWRLNADSVLWGGHKVFMVKPEEPFQPVKEATQL [G63H], the “area with substrate ENAYFQS” value is 0.0994, the “area with substrate ENCYFQS” value came to 0.0717, the “area with substrate ENDYFQS” value came out at 0.086 and the “area with substrate ENIYFQS” value is 0.0813. Besides, the “area with substrate ENNYFQS” value stood at 0.0667, the “area with substrate ENPYFQS” value stood at 0.0437, the “area with substrate ENQYFQS” value came to 0.0597 and the “area with substrate ENSYFQS” value was determined as 0.0502. Also, the “area with substrate ENTYFQS” value worked out at 0.0541 and the “area with substrate ENVYFQS” value amounted to 0.0673.
As to MGESLFKGPRDYNPISSSICHLTNESDGHTTSLYGIGFGPFIITNKHLFRRNNGTLVVQSLHGVFKVKDTTTLQQHLVDGFDMIIIRMPKDFPPFPQKLKFREPQREERICLVTTNFQTKSMSSMVSDTSCTFPSGDGIFWKHWIQTKDGQCGSPLVSTRDGFIVGIHSASNFTNTNNYFTSVPKNFMELLTNQEAQQWVSGWRLNADSVLWGGHKVFMVKPEEPFQPVKEATQL [R81F], the “area with substrate ENAYFQS” value was found to be 0.068, the “area with substrate ENCYFQS” value is 0.056, the “area with substrate ENDYFQS” value worked out at 0.088 and the “area with substrate ENEYFQS” value was found to be 0.0538. Also, the “area with substrate ENFYFQS” value turned out to be 0.0574, the “area with substrate ENGYFQS” value was found to be 0.0838, the “area with substrate ENHYFQS” value amounted to 0.0649 and the “area with substrate ENIYFQS” value amounted to 0.076. In addition, the “area with substrate ENMYFQS” value turned out to be 0.107, the “area with substrate ENNYFQS” value is 0.0554, the “area with substrate ENPYFQS” value turned out to be 0.0602 and the “area with substrate ENRYFQS” value came to 0.0438. For the same variant, the “area with substrate ENTYFQS” value is 0.0598.
In the case of MGESLFKGPRDYNPISSSICHLTNESDGHTTSLYGIGFGPFIITNKHLFRRNNGTLVVQSLHGVFKVKDTTTTQQHLVDGRDMIIIRMPKDFPPFPQKLKFREPQREERICLVTTNFQTKSMSSMVSDTSCTFPSGDGIFWKHWIQTKDGQCGSPLVSTRDGFIVGIHSASNFTNTNNYFTSVPKNFMELLTNQEAQQWVSGWRLNADSVLWGGHKVFMVKPEEPFQPVKEATQL [L73T], the “area with substrate ENAYFQS” value is 0.0525, the “area with substrate ENCYFQS” value was determined as 0.0616, the “area with substrate ENDYFQS” value was 0.0522 and the “area with substrate ENEYFQS” value came to 0.0551. Also, the “area with substrate ENFYFQS” value came out at 0.0552, the “area with substrate ENIYFQS” value stood at 0.0685, the “area with substrate ENKYFQS” value was 0.0694 and the “area with substrate ENMYFQS” value came out at 0.0499. The “area with substrate ENNYFQS” value was 0.0593, the “area with substrate ENPYFQS” value stood at 0.0503, the “area with substrate ENQYFQS” value is 0.0686 and the “area with substrate ENRYFQS” value turned out to be 0.0605. The “area with substrate ENSYFQS” value stood at 0.0601, the “area with substrate ENTYFQS” value is 0.0522, the “area with substrate ENVYFQS” value worked out at 0.0693 and the “area with substrate ENYYFQS” value worked out at 0.0557.
On to MGESLFKGPRDYNPISSSICHLTNESDGHTTSLYGIGFGPFIITNKHLFRRNNGTLVVQSLHGVFKVKDTTTSQQHLVDGRDMIIIRMPKDFPPFPQKLKFREPQREERICLVTTNFQTKSMSSMVSDTSCTFPSGDGIFWKHWIQTKDGQCGSPLVSTRDGFIVGIHSASNFTNTNNYFTSVPKNFMELLTNQEAQQWVSGWRLNADSVLWGGHKVFMVKPEEPFQPVKEATQL [L73S], for which the “area with substrate ENAYFQS” value worked out at 0.0509, the “area with substrate ENDYFQS” value was determined as 0.0628, the “area with substrate ENEYFQS” value amounted to 0.0536 and the “area with substrate ENFYFQS” value was determined as 0.0577. Moreover, the “area with substrate ENHYFQS” value was 0.0727, the “area with substrate ENMYFQS” value turned out to be 0.0633, the “area with substrate ENQYFQS” value was 0.0612 and the “area with substrate ENRYFQS” value was found to be 0.0505. Besides, the “area with substrate ENSYFQS” value turned out to be 0.0548 and the “area with substrate ENYYFQS” value came to 0.0391.
With MGESLFKGPRDYNPISSSICHLTNESDGHTTSLYGIGFGPFIITNKHLFRRNNGTLVVQSLHGVFKVKDTTTWQQHLVDGRDMIIIRMPKDFPPFPQKLKFREPQREERICLVTTNFQTKSMSSMVSDTSCTFPSGDGIFWKHWIQTKDGQCGSPLVSTRDGFIVGIHSASNFTNTNNYFTSVPKNFMELLTNQEAQQWVSGWRLNADSVLWGGHKVFMVKPEEPFQPVKEATQL [L73W], the “area with substrate ENAYFQS” value came to 0.066, the “area with substrate ENEYFQS” value was found to be 0.0675, the “area with substrate ENGYFQS” value amounted to 0.0651 and the “area with substrate ENNYFQS” value was 0.046. Further, the “area with substrate ENPYFQS” value stood at 0.0649, the “area with substrate ENQYFQS” value was found to be 0.0562, the “area with substrate ENSYFQS” value amounted to 0.0478 and the “area with substrate ENTYFQS” value stood at 0.0318. For the same variant, the “area with substrate ENVYFQS” value was 0.0533.

These data come from the supplement of paper PMC12217912.
